From PubChem BioAssay AID588342 (National Center for Advancing Translational Sciences (NCATS), 2011)
Among all 360,000 compounds or so, about 25,000 (6.9%) were called active. The inconclusive results got no clear call from the source; some entries with a clear call stand among them for comparison. The call rests on the fitted dose curve; in most records, active means well fitted inhibition curve with a large enough effect; inconclusive means small, poorly fitted or top-dose-only effect; inactive means flat fitted curve, though single readings scatter. Potencies beside an inconclusive call are fits to weak or partial responses and may not hold up.

Molecular target: Luciferin 4-monooxygenase (Photinus pyralis) (UniProt P08659)
Sequence of UniProt P08659 (P08659 whole entry, looked up): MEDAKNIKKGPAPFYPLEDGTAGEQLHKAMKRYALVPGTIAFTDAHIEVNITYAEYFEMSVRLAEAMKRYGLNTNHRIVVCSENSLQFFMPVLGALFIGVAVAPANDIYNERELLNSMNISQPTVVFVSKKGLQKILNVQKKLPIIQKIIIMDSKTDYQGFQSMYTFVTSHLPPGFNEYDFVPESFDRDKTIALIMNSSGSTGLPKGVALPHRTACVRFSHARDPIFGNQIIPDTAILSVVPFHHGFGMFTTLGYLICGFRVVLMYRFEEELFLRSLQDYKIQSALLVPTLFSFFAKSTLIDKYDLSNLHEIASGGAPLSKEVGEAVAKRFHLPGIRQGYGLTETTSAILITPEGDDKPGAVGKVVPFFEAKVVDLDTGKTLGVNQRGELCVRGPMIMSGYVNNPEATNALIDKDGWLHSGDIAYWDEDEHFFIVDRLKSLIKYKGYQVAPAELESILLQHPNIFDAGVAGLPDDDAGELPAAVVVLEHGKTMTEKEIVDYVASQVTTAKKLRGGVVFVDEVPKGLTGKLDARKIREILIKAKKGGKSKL
Test: qHTS profiling assay for firefly luciferase inhibitor/activator using purifed enzyme and Km concentrations of substrates (counterscreen for miR-21 project); further: nearly all actives have a fitted effect of over 55% in size
Conditions: purified FLuc, luminescence inhibition; series mostly up to 57.5 µM
In short: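 Purified P. pyralis luciferase (10nM final) with 10uM D-luciferin and 10uM ATP (Km levels) in 50mM Tris acetate pH 7.5, 10mM Mg acetate, 0.01% Tween-20, 0.05% BSA; qHTS 6-point titration, ~60 µM downward; luminescence read.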
Potency means the concentration at half of the fitted maximal effect; tags describe the fitted curve by direction and shape.

Structure (SMILES) | Potency
C=CCn1c(C)cc(C(=O)CSc2nc(N)cc(N)n2)c1C | active: 21.3 µM
CN(CC(=O)Nc1ccccc1F)Cc1cccs1 | inactive
COc1ccc(N(Cc2ccccc2)S(=O)(=O)c2cccc(C(=O)O)c2)cc1 | inactive
COc1ccc(/C=N/Nc2nc(-c3ccc(Cl)cc3)cc(C(F)(F)F)n2)cc1OC | inconclusive: 16.9 µM [inhibitor, partial curve]
CC(=O)Cn1ncc(N2CCCCC2)c(Cl)c1=O | inconclusive: 26.9 µM [inhibitor, single point]
COC(=O)c1ccc(Cn2c(SCC(=O)Nc3ccc(F)cc3)nc3ccccc32)cc1 | inconclusive: 8.49 µM [inhibitor, partial curve, poor fit]
O=C(NCCc1ccccc1)c1n[nH]c2ccccc12 | active: 10.7 µM
CC(/C=N/NC(=O)c1cc(C(C)(C)C)[nH]n1)=C\c1ccccc1 | inconclusive: 6.75 µM [inhibitor, partial curve]
Cc1ccc(C(=O)c2ccc([N+](=O)[O-])cc2)cc1C | inconclusive: 26.9 µM [inhibitor, partial curve, poor fit]
CC(=O)[C@H]1[C@@H]2C(=O)N(c3cccc(Cl)c3)C(=O)[C@@H]2[C@H]2c3ccccc3C=CN21 | inconclusive: 21.3 µM [inhibitor, partial curve, poor fit]
CCCN(CCC)c1ncnc2c1cnn2-c1ccc(OC)cc1 | active: 2.39 µM
CC(=O)N1c2ccc(S(=O)(=O)NCCC(=O)Nc3ccc(C)cc3Br)cc2CC1C (configuration not stated) | inactive
COc1cc(/C=N/NC(=O)C(=O)Nc2ccccn2)ccc1O | inconclusive: 37.9 µM [inhibitor, partial curve, poor fit]
Cc1ccc(CNC(=O)Cn2ccn(-c3cc(C)cc(C)c3)c(=O)c2=O)cc1 | inactive
CN1CCN(C(=O)/C(=C\c2cccc([N+](=O)[O-])c2)NC(=O)c2cccs2)CC1 | inactive
O=C(N/N=C/c1cc(Br)cc(Br)c1O)c1cccc(N2CCCC2=O)c1 | inconclusive: 26.9 µM [inhibitor, partial curve, poor fit]
O=C(/C=C/c1ccc2c(c1)OCO2)NCCSCc1ccc(Cl)cc1Cl | inconclusive: 19 µM [inhibitor, partial curve, poor fit]
CCn1c(SCC(=O)Nc2nc(-c3ccc(C)cc3)cs2)nnc1-c1ccccc1O | inconclusive: 7.57 µM [inhibitor, full curve]
COc1ccc(-c2cc(=O)c3cc(OC)ccc3[nH]2)cc1 | active: 3.38 µM
Cc1[nH]c2ccccc2c1/C=C(\C#N)C(=O)NC(C)c1ccccc1 (configuration not stated) | inactive
O=C(N/N=C\c1cc(Br)cs1)c1ccncc1 | inconclusive: 19 µM [inhibitor, partial curve]
CCOC(=O)CNc1ccc(C(=O)OCC)cc1[N+](=O)[O-] | inactive
Cc1ccc(C)c(Cn2cnc3ccccc3c2=O)c1 | inactive
CC(=O)c1nc(-c2ccccc2)sc1C | inconclusive: 37.9 µM [inhibitor, partial curve, poor fit]

Structure (SMILES) | Potency
Clc1ccc(-c2cc(CN3CCOCC3)no2)cc1 | active: 12 µM
Cc1ccc(C(=O)NCC(=O)OCC(=O)Nc2ccc3[nH]c(=O)[nH]c3c2)cc1 | inconclusive: 37.9 µM [inhibitor, partial curve, poor fit]
CCOc1ccc(/C=C2\SC(N3CCCCC3)=NC2=O)cc1 | inconclusive: 13.5 µM [inhibitor, partial curve]
C/C(=N\NC(=O)CC#N)C1COc2ccccc2O1 (configuration not stated) | inactive
CCOc1ccc(Nc2nc(Cc3nnc(SCC(=O)c4ccc(C)cc4)o3)cs2)cc1 | inconclusive: 15.1 µM [inhibitor, partial curve]
CCN1/C(=C/c2ccc3ccc(C)cc3[n+]2CC)Sc2ccccc21 | inconclusive: 26.9 µM [inhibitor, partial curve, poor fit]
CCOc1ccccc1Nc1ccc(C(=O)O)cc1[N+](=O)[O-] | inconclusive: 13.5 µM [inhibitor, partial curve]
COc1ccc(CN2C(=O)c3cccnc3C2=O)cc1S(=O)(=O)NC(C)C | inactive
O=C(NC1CCCC1)c1ccc(COCC(F)(F)C(F)F)o1 | inactive
CCCCC(=O)Nc1ccc(C(=O)NNC(=O)c2ccc(C)c(Br)c2)cc1 | inactive
COc1ccc(C(=O)COC(=O)/C=C/c2ccccc2)c(OC)c1 | inconclusive: 23.9 µM [inhibitor, single point]
O=C(c1ccncc1)N1N=C(c2ccc(Cl)cc2)CC1c1ccccc1O (configuration not stated) | active: 16.9 µM
COc1cc(Cl)cc(/C=C/c2ccc3cccc(O)c3n2)c1OC | inconclusive: 16.9 µM [inhibitor, partial curve]
CC(C)(C)c1nnc(NC(=O)c2ccc(Cl)nc2)s1 | inconclusive: 23.9 µM [inhibitor, single point]
COc1ccccc1NS(=O)(=O)c1cccc(NC(=O)c2ccc3ccccc3n2)c1 | inconclusive: 37.9 µM [inhibitor, partial curve, poor fit]
N/C(=N\OC(=O)c1ccccc1Br)c1cccc([N+](=O)[O-])c1 | active: 2.39 µM
O=C(Nc1nnc(COc2ccc(Cl)cc2)s1)c1ccco1 | inconclusive: 37.9 µM [inhibitor, single point]
O=C(O)CS/C(=C\c1ccc(F)cc1)c1nc2ccccc2s1 | active: 23.9 µM
COc1ccccc1C(=O)Nc1nc2ccccc2s1 | active: 0.107 µM
O=C(Nc1nccs1)c1ccc(Br)o1 | inconclusive: 23.9 µM [inhibitor, single point]
CC(C)(C)C(=O)N1CCN(c2ccc(NC(=O)c3ccc4c(c3)OCCO4)cc2)CC1 | inconclusive: 26.9 µM [inhibitor, single point]
CCN(CC)CCNC(=O)c1cc(Br)c(N)cc1OC | inactive
O=C1CCN(CCc2ccccc2)CCN1[C@H](CSc1ccccc1)c1ccccc1 | inconclusive: 26.9 µM [inhibitor, partial curve, poor fit]
